Test results as given in article PMC4942575.
No constants are given. Whether binding was seen depends on the method and setting. For some assays here: Binding seen in cells or lysates may run through a third protein. Some binding calls cover weakened binding; strength is not graded here. For some assays here: Tags and fused reporters may be left off the sequences shown.

Chains of the proteins cited; added tags and fusions are not shown. Lines headed by an entry give the natural chain unless they say otherwise; changes in a name come on top. A line that says so, or that is headed by a name, gives the form on record, which may keep a tag or linker. Residues count along the entry.
UniProt A0MES8: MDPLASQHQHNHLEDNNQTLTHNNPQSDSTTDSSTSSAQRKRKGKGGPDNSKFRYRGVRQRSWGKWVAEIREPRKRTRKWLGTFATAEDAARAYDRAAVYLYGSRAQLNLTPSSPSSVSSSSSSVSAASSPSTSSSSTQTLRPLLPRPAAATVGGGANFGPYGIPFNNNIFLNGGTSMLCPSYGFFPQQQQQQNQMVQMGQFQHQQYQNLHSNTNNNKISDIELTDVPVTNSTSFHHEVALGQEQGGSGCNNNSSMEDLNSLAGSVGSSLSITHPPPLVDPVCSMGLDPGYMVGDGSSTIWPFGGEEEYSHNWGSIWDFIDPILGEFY
ABI4 (amino acids 1–160) fused with the GAL4 DNA-binding domain (BD): residues 1-160 of A0MES8

What was measured:
[1] = target: ABI4 (amino acids 1–160) fused with the GAL4 DNA-binding domain (BD) (Arabidopsis) (UniProt A0MES8); assay: two-hybrid; ABI4 (1-160)-BD and 20 MAPKs-AD co-transformed into Y2H Gold; grown on SD-Leu-Trp, α-galactosidase assay
[2] = target: T1, 14-3-3ω in pGBK (two-hybrid bait) (Arabidopsis) (UniProt Q01525); assay: two-hybrid; 14-3-3ω or 14-3-3Φ in pGBK and MAPK pathway components in pGAD co-transformed into Y2H Gold; SD-Leu-Trp-His with 40 μg ml^-1 X-α-gal
T1 sequence: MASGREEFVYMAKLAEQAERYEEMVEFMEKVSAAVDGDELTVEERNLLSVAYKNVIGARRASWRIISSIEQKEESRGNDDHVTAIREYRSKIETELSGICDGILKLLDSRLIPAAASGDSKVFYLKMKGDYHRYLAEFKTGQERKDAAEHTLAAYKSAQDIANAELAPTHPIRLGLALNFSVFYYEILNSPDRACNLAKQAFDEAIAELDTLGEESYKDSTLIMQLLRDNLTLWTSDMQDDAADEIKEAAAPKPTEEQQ

[3] = target: T2, 14-3-3ω-nYFP (Arabidopsis) (UniProt Q01525); assay: split reporter; BiFC: 14-3-3ω-nYFP and cYFP fusions co-transformed into Arabidopsis protoplasts; confocal microscopy 12-18 h after transformation
T2 sequence: T1 sequence

ABI4-CLuc (Arabidopsis) = ABI4-CLuc (Arabidopsis) (UniProt A0MES8); assay: split reporter; luciferase complementation imaging: ABI4-CLuc and MPK3/MPK6-NLuc co-infiltrated into N. benthamiana leaves
[4] = target: T3, 14-3-3Φ in pGBK (two-hybrid bait) (Arabidopsis) (UniProt P46077); assay: two-hybrid; 14-3-3ω or 14-3-3Φ in pGBK and MAPK pathway components in pGAD co-transformed into Y2H Gold; SD-Leu-Trp-His with 40 μg ml^-1 X-α-gal
T3 sequence: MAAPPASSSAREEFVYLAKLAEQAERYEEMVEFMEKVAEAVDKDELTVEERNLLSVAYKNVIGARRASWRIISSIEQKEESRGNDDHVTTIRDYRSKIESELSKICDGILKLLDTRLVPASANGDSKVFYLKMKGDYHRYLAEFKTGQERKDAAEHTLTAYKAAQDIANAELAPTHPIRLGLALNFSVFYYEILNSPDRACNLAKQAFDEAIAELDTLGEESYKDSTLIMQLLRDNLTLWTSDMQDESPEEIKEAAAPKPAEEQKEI

[5] = target: T4, 14-3-3Φ in pGBK (two-hybrid bait) (Arabidopsis), P46077; assay: as above; settings: remark: other sources report otherwise
T4 chain: T3 sequence

B1: MPK3 fused with the GAL4 activation domain (AD) (enzyme, UniProt Q39023 1-370)
chain: MNTGGGQYTDFPAVETHGGQFISYDIFGSLFEITSKYRPPIIPIGRGAYGIVCSVLDTETNELVAMKKIANAFDNHMDAKRTLREIKLLRHLDHENIIAIRDVVPPPLRRQFSDVYISTELMDTDLHQIIRSNQSLSEEHCQYFLYQLLRGLKYIHSANIIHRDLKPSNLLLNANCDLKICDFGLARPTSENDFMTEYVVTRWYRAPELLLNSSDYTAAIDVWSVGCIFMELMNRKPLFPGKDHVHQMRLLTELLGTPTESDLGFTHNEDAKRYIRQLPNFPRQPLAKLFSHVNPMAIDLVDRMLTFDPNRRITVEQALNHQYLAKLHDPNDEPICQKPFSFEFEQQPLDEEQIKEMIYQEAIALNPTYG
[1]
  binding: binds
[2]
  binding: binds

B2: MPK3-cYFP (enzyme, UniProt Q39023 1-370)
chain: B1 chain
[3]
  binding: binds

B3: MKK4-cYFP (enzyme, UniProt O80397 1-366)
chain: MRPIQSPPGVSVPVKSRPRRRPDLTLPLPQRDVSLAVPLPLPPTSGGSGGSSGSAPSSGGSASSTNTNSSIEAKNYSDLVRGNRIGSGAGGTVYKVIHRPSSRLYALKVIYGNHEETVRRQICREIEILRDVNHPNVVKCHEMFDQNGEIQVLLEFMDKGSLEGAHVWKEQQLADLSRQILSGLAYLHSRHIVHRDIKPSNLLINSAKNVKIADFGVSRILAQTMDPCNSSVGTIAYMSPERINTDLNQGKYDGYAGDIWSLGVSILEFYLGRFPFPVSRQGDWASLMCAICMSQPPEAPATASPEFRHFISCCLQREPGKRRSAMQLLQHPFILRASPSQNRSPQNLHQLLPPPRPLSSSSSPTT
[3]
  binding: binds

B4: MKK5-cYFP (enzyme, UniProt Q8RXG3 1-348)
chain: MKPIQSPSGVASPMKNRLRKRPDLSLPLPHRDVALAVPLPLPPPSSSSSAPASSSAISTNISAAKSLSELERVNRIGSGAGGTVYKVIHTPTSRPFALKVIYGNHEDTVRRQICREIEILRSVDHPNVVKCHDMFDHNGEIQVLLEFMDQGSLEGAHIWQEQELADLSRQILSGLAYLHRRHIVHRDIKPSNLLINSAKNVKIADFGVSRILAQTMDPCNSSVGTIAYMSPERINTDLNHGRYDGYAGDVWSLGVSILEFYLGRFPFAVSRQGDWASLMCAICMSQPPEAPATASQEFRHFVSCCLQSDPPKRWSAQQLLQHPFILKATGGPNLRQMLPPPRPLPSAS
[3]
  binding: binds

B5: MPK3-NLuc (enzyme, UniProt Q39023 1-370)
chain: B1 chain
ABI4-CLuc (Arabidopsis)
  binding: binds

B6: pGAD-MKK4 (enzyme, UniProt O80397 1-366)
chain: B3 chain
[4]
  binding: no binding
[2]
  binding: binds

B7: pGAD-MKK5 (enzyme, UniProt Q8RXG3 1-348)
chain: B4 chain
[4]
  binding: no binding
[2]
  binding: binds

B8: pGAD-MEKK1 (enzyme, UniProt Q39008 1-608)
chain: MDRILARMKKSTGRRGGDKNITPVRRLERRDAARNINYDAASCSSSSAEDLSVSTSSLMTRSLEFPEPTSFRIGGGVGEMDRIYRSLGVSGPDDLAISFDAWEACKKRSSSDVVNRFKSFDLDKVRDQDLSEEGPSGVVVGSDSMNHKVQGQDLSEAGPSGGIVTELSEIGNLITPVDRLVADGVVENRRVMERTPTIVKSKGYLVPNNVVAVGVGVGGGIKGLRPPVLKPPPAMKRPPIDHRGSSWDFLTHFAPSETVKRPSSSSSSSEDGCDEEEGKEEEAEAEEMGARFIQLGDTADETCSFTTNEGDSSSTVSNTSPIYPDGGAIITSWQKGQLLGRGSFGSVYEGISGDGDFFAVKEVSLLDQGSQAQECIQQLEGEIKLLSQLQHQNIVRYRGTAKDGSNLYIFLELVTQGSLLKLYQRYQLRDSVVSLYTRQILDGLKYLHDKGFIHRDIKCANILVDANGAVKLADFGLAKVSKFNDIKSCKGTPFWMAPEVINRKDSDGYGSPADIWSLGCTVLEMCTGQIPYSDLEPVQALFRIGRGTLPEVPDTLSLDARLFILKCLKVNPEERPTAAELLNHPFVRRPLPSVGSGGSGSASPLLRR
[2]
  binding: no binding

B9: pGAD-MKK9 (enzyme, UniProt Q9FX43 1-310)
chain: MALVRERRQLNLRLPLPPISDRRFSTSSSSATTTTVAGCNGISACDLEKLNVLGCGNGGIVYKVRHKTTSEIYALKTVNGDMDPIFTRQLMREMEILRRTDSPYVVKCHGIFEKPVVGEVSILMEYMDGGTLESLRGGVTEQKLAGFAKQILKGLSYLHALKIVHRDIKPANLLLNSKNEVKIADFGVSKILVRSLDSCNSYVGTCAYMSPERFDSESSGGSSDIYAGDIWSFGLMMLELLVGHFPLLPPGQRPDWATLMCAVCFGEPPRAPEGCSEEFRSFVECCLRKDSSKRWTAPQLLAHPFLREDL
[2]
  binding: no binding

B10: MPK3 fused with the GAL4 activation domain (AD), Q39023 1-370 (enzyme)
chain: B1 chain
[5]
  binding: no binding

B11: MPK6 fused with the GAL4 activation domain (AD), Q39026 1-395 (enzyme)
chain: MDGGSGQPAADTEMTEAPGGFPAAAPSPQMPGIENIPATLSHGGRFIQYNIFGNIFEVTAKYKPPIMPIGKGAYGIVCSAMNSETNESVAIKKIANAFDNKIDAKRTLREIKLLRHMDHENIVAIRDIIPPPLRNAFNDVYIAYELMDTDLHQIIRSNQALSEEHCQYFLYQILRGLKYIHSANVLHRDLKPSNLLLNANCDLKICDFGLARVTSESDFMTEYVVTRWYRAPELLLNSSDYTAAIDVWSVGCIFMELMDRKPLFPGRDHVHQLRLLMELIGTPSEEELEFLNENAKRYIRQLPPYPRQSITDKFPTVHPLAIDLIEKMLTFDPRRRITVLDALAHPYLNSLHDISDEPECTIPFNFDFENHALSEEQMKELIYREALAFNPEYQQ
[5]
  binding: no binding
